± gives the standard deviation of the averaged measurements. Restriction of a single-cycle SIVsab GFP reporter by TRIM5α v1-loop variants in CRFK cells. Human variants: read share among cells still uninfected after two challenges over input, higher = gained restriction. Rhesus variants: share among infected cells over input, higher = lost restriction. Reporter dose not given per row. No active / inactive call per row; the paper calls a change when both replicates lie above its controls (mean + 2 SD of stop or wild-type variants, or the top frameshift score). Residues outside the varied loop are taken from Swiss-Prot. The paper reads the human single-substitution scores as noise; they and the rhesus combinations repeat poorly (rank correlation 0.3 to 0.4), indel scores repeat only for the top variants, rhesus substitutions well (0.9).

This passage reports enrichment results from the supplement of paper PMC12230231.

The test system of this data set is SIVsab (simian immunodeficiency virus of sabaeus monkeys), single-cycle GFP reporter, in CRFK cells. The data set can be described thus: enrichment among uninfected cells over input (fold); higher = stronger restriction. The conditions noted are these: library: insertions and deletions. The method, then:
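Pools of CRFK cells expressing variants of the TRIM5α v1 loop were challenged with the single-cycle reporter, sorted by GFP and sequenced; mean of two replicates.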
With “MASGILVNVKEEVTCPICLELLTQPLSLDCGHSFCQACLTANHKKSMLDKGESSCPVCRISYQPENIRPNRHVANIVEKLREVKLSPEGQKVDHCARHGEKLLLFCQEDGKVICWLCERSQEHRGHHTFLTEEVAREYQVKLQAALEMLRQKQQEAEELEADIREEKASWKTQIQYDKTNVLADFEQLRDILDWEESNELQNLEKEEEDILKSLTNSETEMVQQTQSLRELISDLEHRLQGSVMELLQGVDGVIKRTENVTLKKPETFPKNQRRVFRAPDLKGMLEVFRELTDVRRYWVDVTVAPNNISCAVISEDKRQVSSPKPQIIYGARGARGTRYQTFVNFNYCTGILGSQSITSGKHYWEVDVSKKTAWILGVCAGFQPDAMCNIEKNENYQPKYGYWVIGLEEGVKCSAFQDSSFHTPSVPFIVPLSVIICPDRVGVFLDYEACTVSFFNITNHGFLIYKFSHCSFSQPVFPYLNPRKCGVPMTLCSPSS [human TRIM5α, 3-codon duplication at 330]”, the enrichment came out at 0.92 ± 0.098.

“MASGILVNVKEEVTCPICLELLTQPLSLDCGHSFCQACLTANHKKSMLDKGESSCPVCRISYQPENIRPNRHVANIVEKLREVKLSPEGQKVDHCARHGEKLLLFCQEDGKVICWLCERSQEHRGHHTFLTEEVAREYQVKLQAALEMLRQKQQEAEELEADIREEKASWKTQIQYDKTNVLADFEQLRDILDWEESNELQNLEKEEEDILKSLTNSETEMVQQTQSLRELISDLEHRLQGSVMELLQGVDGVIKRTENVTLKKPETFPKNQRRVFRAPDLKGMLEVFRELTDVRRYWVDVTVAPNNISCAVISEDKRQVSSPKPQIIYGARGARGTRYQTFVNFNYCTGILGSQSITSGKHYWEVDVSKKTAWILGVCAGFQPDAMCNIEKNENYQPKYGYWVIGLEEGVKCSAFQDSSFHTPSVPFIVPLSVIICPDRVGVFLDYEACTVSFFNITNHGFLIYKFSHCSFSQPVFPYLNPRKCGVPMTLCSPSS [human TRIM5α, 3-codon duplication at 331]” came in with an enrichment of 0.378 ± 0.24.

The sequence “MASGILVNVKEEVTCPICLELLTQPLSLDCGHSFCQACLTANHKKSMLDKGESSCPVCRISYQPENIRPNRHVANIVEKLREVKLSPEGQKVDHCARHGEKLLLFCQEDGKVICWLCERSQEHRGHHTFLTEEVAREYQVKLQAALEMLRQKQQEAEELEADIREEKASWKTQIQYDKTNVLADFEQLRDILDWEESNELQNLEKEEEDILKSLTNSETEMVQQTQSLRELISDLEHRLQGSVMELLQGVDGVIKRTENVTLKKPETFPKNQRRVFRAPDLKGMLEVFRELTDVRRYWVDVTVAPNNISCAVISEDKRQVSSPKPQIIYGARGFNYCTGILGSQSITSGKHYWEVDVSKKTAWILGVCAGFQPDAMCNIEKNENYQPKYGYWVIGLEEGVKCSAFQDSSFHTPSVPFIVPLSVIICPDRVGVFLDYEACTVSFFNITNHGFLIYKFSHCSFSQPVFPYLNPRKCGVPMTLCSPSS [human TRIM5α, 8-codon deletion at 334]” had an enrichment of 1.36 ± 0.77.

On to “MASGILVNVKEEVTCPICLELLTQPLSLDCGHSFCQACLTANHKKSMLDKGESSCPVCRISYQPENIRPNRHVANIVEKLREVKLSPEGQKVDHCARHGEKLLLFCQEDGKVICWLCERSQEHRGHHTFLTEEVAREYQVKLQAALEMLRQKQQEAEELEADIREEKASWKTQIQYDKTNVLADFEQLRDILDWEESNELQNLEKEEEDILKSLTNSETEMVQQTQSLRELISDLEHRLQGSVMELLQGVDGVIKRTENVTLKKPETFPKNQRRVFRAPDLKGMLEVFRELTDVRRYWVDVTVAPNNISCAVISEDKRQVSSPKPQIIYGARGFVNFNYCTGILGSQSITSGKHYWEVDVSKKTAWILGVCAGFQPDAMCNIEKNENYQPKYGYWVIGLEEGVKCSAFQDSSFHTPSVPFIVPLSVIICPDRVGVFLDYEACTVSFFNITNHGFLIYKFSHCSFSQPVFPYLNPRKCGVPMTLCSPSS [human TRIM5α, 5-codon deletion at 334]”, for which the enrichment was 0.225 ± 0.23.

As to “MASGILVNVKEEVTCPICLELLTQPLSLDCGHSFCQACLTANHKKSMLDKGESSCPVCRISYQPENIRPNRHVANIVEKLREVKLSPEGQKVDHCARHGEKLLLFCQEDGKVICWLCERSQEHRGHHTFLTEEVAREYQVKLQAALEMLRQKQQEAEELEADIREEKASWKTQIQYDKTNVLADFEQLRDILDWEESNELQNLEKEEEDILKSLTNSETEMVQQTQSLRELISDLEHRLQGSVMELLQGVDGVIKRTENVTLKKPETFPKNQRRVFRAPDLKGMLEVFRELTDVRRYWVDVTVAPNNISCAVISEDKRQVSSPKPQIIYGARGGARGTRYQTFVNFNYCTGILGSQSITSGKHYWEVDVSKKTAWILGVCAGFQPDAMCNIEKNENYQPKYGYWVIGLEEGVKCSAFQDSSFHTPSVPFIVPLSVIICPDRVGVFLDYEACTVSFFNITNHGFLIYKFSHCSFSQPVFPYLNPRKCGVPMTLCSPSS [human TRIM5α, 4-codon duplication at 330]”, the enrichment stood at 2.21 ± 2.3.

Turning to “MASGILVNVKEEVTCPICLELLTQPLSLDCGHSFCQACLTANHKKSMLDKGESSCPVCRISYQPENIRPNRHVANIVEKLREVKLSPEGQKVDHCARHGEKLLLFCQEDGKVICWLCERSQEHRGHHTFLTEEVAREYQVKLQAALEMLRQKQQEAEELEADIREEKASWKTQIQYDKTNVLADFEQLRDILDWEESNELQNLEKEEEDILKSLTNSETEMVQQTQSLRELISDLEHRLQGSVMELLQGVDGVIKRTENVTLKKPETFPKNQRRVFRAPDLKGMLEVFRELTDVRRYWVDVTVAPNNISCAVISEDKRQVSSPKPQIIYGARGGTRYQTFVNFNYCTGILGSQSITSGKHYWEVDVSKKTAWILGVCAGFQPDAMCNIEKNENYQPKYGYWVIGLEEGVKCSAFQDSSFHTPSVPFIVPLSVIICPDRVGVFLDYEACTVSFFNITNHGFLIYKFSHCSFSQPVFPYLNPRKCGVPMTLCSPSS [human TRIM5α, 1-codon duplication at 333]”, the enrichment is 0.609 ± 0.52.

“MASGILVNVKEEVTCPICLELLTQPLSLDCGHSFCQACLTANHKKSMLDKGESSCPVCRISYQPENIRPNRHVANIVEKLREVKLSPEGQKVDHCARHGEKLLLFCQEDGKVICWLCERSQEHRGHHTFLTEEVAREYQVKLQAALEMLRQKQQEAEELEADIREEKASWKTQIQYDKTNVLADFEQLRDILDWEESNELQNLEKEEEDILKSLTNSETEMVQQTQSLRELISDLEHRLQGSVMELLQGVDGVIKRTENVTLKKPETFPKNQRRVFRAPDLKGMLEVFRELTDVRRYWVDVTVAPNNISCAVISEDKRQVSSPKPQIIYGARGIIYGARGTRYQTFVNFNYCTGILGSQSITSGKHYWEVDVSKKTAWILGVCAGFQPDAMCNIEKNENYQPKYGYWVIGLEEGVKCSAFQDSSFHTPSVPFIVPLSVIICPDRVGVFLDYEACTVSFFNITNHGFLIYKFSHCSFSQPVFPYLNPRKCGVPMTLCSPSS [human TRIM5α, 7-codon duplication at 327]” registered an enrichment of 0.383 ± 0.38.

“MASGILVNVKEEVTCPICLELLTQPLSLDCGHSFCQACLTANHKKSMLDKGESSCPVCRISYQPENIRPNRHVANIVEKLREVKLSPEGQKVDHCARHGEKLLLFCQEDGKVICWLCERSQEHRGHHTFLTEEVAREYQVKLQAALEMLRQKQQEAEELEADIREEKASWKTQIQYDKTNVLADFEQLRDILDWEESNELQNLEKEEEDILKSLTNSETEMVQQTQSLRELISDLEHRLQGSVMELLQGVDGVIKRTENVTLKKPETFPKNQRRVFRAPDLKGMLEVFRELTDVRRYWVDVTVAPNNISCAVISEDKRQVSSPKPQIIYGARGIYGARGTRYQTFVNFNYCTGILGSQSITSGKHYWEVDVSKKTAWILGVCAGFQPDAMCNIEKNENYQPKYGYWVIGLEEGVKCSAFQDSSFHTPSVPFIVPLSVIICPDRVGVFLDYEACTVSFFNITNHGFLIYKFSHCSFSQPVFPYLNPRKCGVPMTLCSPSS [human TRIM5α, 6-codon duplication at 328]”: the enrichment amounted to 0.373 ± 0.036.

Turning to “MASGILVNVKEEVTCPICLELLTQPLSLDCGHSFCQACLTANHKKSMLDKGESSCPVCRISYQPENIRPNRHVANIVEKLREVKLSPEGQKVDHCARHGEKLLLFCQEDGKVICWLCERSQEHRGHHTFLTEEVAREYQVKLQAALEMLRQKQQEAEELEADIREEKASWKTQIQYDKTNVLADFEQLRDILDWEESNELQNLEKEEEDILKSLTNSETEMVQQTQSLRELISDLEHRLQGSVMELLQGVDGVIKRTENVTLKKPETFPKNQRRVFRAPDLKGMLEVFRELTDVRRYWVDVTVAPNNISCAVISEDKRQVSSPKPQIIYGARGNFNYCTGILGSQSITSGKHYWEVDVSKKTAWILGVCAGFQPDAMCNIEKNENYQPKYGYWVIGLEEGVKCSAFQDSSFHTPSVPFIVPLSVIICPDRVGVFLDYEACTVSFFNITNHGFLIYKFSHCSFSQPVFPYLNPRKCGVPMTLCSPSS [human TRIM5α, 7-codon deletion at 334]”, the enrichment is 0.882 ± 0.48.

With “MASGILVNVKEEVTCPICLELLTQPLSLDCGHSFCQACLTANHKKSMLDKGESSCPVCRISYQPENIRPNRHVANIVEKLREVKLSPEGQKVDHCARHGEKLLLFCQEDGKVICWLCERSQEHRGHHTFLTEEVAREYQVKLQAALEMLRQKQQEAEELEADIREEKASWKTQIQYDKTNVLADFEQLRDILDWEESNELQNLEKEEEDILKSLTNSETEMVQQTQSLRELISDLEHRLQGSVMELLQGVDGVIKRTENVTLKKPETFPKNQRRVFRAPDLKGMLEVFRELTDVRRYWVDVTVAPNNISCAVISEDKRQVSSPKPQIIYGARGNYCTGILGSQSITSGKHYWEVDVSKKTAWILGVCAGFQPDAMCNIEKNENYQPKYGYWVIGLEEGVKCSAFQDSSFHTPSVPFIVPLSVIICPDRVGVFLDYEACTVSFFNITNHGFLIYKFSHCSFSQPVFPYLNPRKCGVPMTLCSPSS [human TRIM5α, 9-codon deletion at 334]”, the enrichment was 1.63 ± 1.7.

In turn, “MASGILVNVKEEVTCPICLELLTQPLSLDCGHSFCQACLTANHKKSMLDKGESSCPVCRISYQPENIRPNRHVANIVEKLREVKLSPEGQKVDHCARHGEKLLLFCQEDGKVICWLCERSQEHRGHHTFLTEEVAREYQVKLQAALEMLRQKQQEAEELEADIREEKASWKTQIQYDKTNVLADFEQLRDILDWEESNELQNLEKEEEDILKSLTNSETEMVQQTQSLRELISDLEHRLQGSVMELLQGVDGVIKRTENVTLKKPETFPKNQRRVFRAPDLKGMLEVFRELTDVRRYWVDVTVAPNNISCAVISEDKRQVSSPKPQIIYGARGPQIIYGARGTRYQTFVNFNYCTGILGSQSITSGKHYWEVDVSKKTAWILGVCAGFQPDAMCNIEKNENYQPKYGYWVIGLEEGVKCSAFQDSSFHTPSVPFIVPLSVIICPDRVGVFLDYEACTVSFFNITNHGFLIYKFSHCSFSQPVFPYLNPRKCGVPMTLCSPSS [human TRIM5α, 9-codon duplication at 325]” gave an enrichment of 0.734 ± 0.72.

“MASGILVNVKEEVTCPICLELLTQPLSLDCGHSFCQACLTANHKKSMLDKGESSCPVCRISYQPENIRPNRHVANIVEKLREVKLSPEGQKVDHCARHGEKLLLFCQEDGKVICWLCERSQEHRGHHTFLTEEVAREYQVKLQAALEMLRQKQQEAEELEADIREEKASWKTQIQYDKTNVLADFEQLRDILDWEESNELQNLEKEEEDILKSLTNSETEMVQQTQSLRELISDLEHRLQGSVMELLQGVDGVIKRTENVTLKKPETFPKNQRRVFRAPDLKGMLEVFRELTDVRRYWVDVTVAPNNISCAVISEDKRQVSSPKPQIIYGARGQIIYGARGTRYQTFVNFNYCTGILGSQSITSGKHYWEVDVSKKTAWILGVCAGFQPDAMCNIEKNENYQPKYGYWVIGLEEGVKCSAFQDSSFHTPSVPFIVPLSVIICPDRVGVFLDYEACTVSFFNITNHGFLIYKFSHCSFSQPVFPYLNPRKCGVPMTLCSPSS [human TRIM5α, 8-codon duplication at 326]” returned an enrichment of 0.462 ± 0.26.
